B1: Lamin B2, endogenous in STHdh cells (protein, UniProt P21619 1-596)
chain: MASLPPHAGPATPLSPTRLSRLQEKEELRELNDRLAHYIDRVRALELENDRLLLRISEKEEVTTREVSGIKTLYESELADARRVLDETARERARLQIEIGKVQAELEEARKSAKKREGELTVAQGRVKDLESLFHRSEAELATALSDKQGLETEVAELRAQLAKAEDGHAVAKKQLEKETLMRVDLENRCQSLQEELAFSKSVFEEEVRETRRRHERRLVEVDSSRQQEYDFKMAQALEDLRSQHDEQVRLYRVELEQTYQAKLDNAKLLSDQNDKAAHAAREELKEARMRVESLSYQLLGLQKQASAAENHIHELEEALAGERDKFRKMLDAKEQEMTEVRDAMQQQLAEYQELLDIKLALDMEISAYRKLLEGEEERLKLSPSPSSRITISRATSSSSSSSGVGMSVGQGRGKRRRLETEDTSGSPSRASRVSSGSRLAQQTVATGVVNIDEVDPEGRFVRLKNSSDKDQSLGNWRIKRQVLEGEDIAYKFTPKYVLRAGQTVTVWAAGAGATHSPPSTLVWKSQTNWGPGESFRTALVSADGEEVAVKAAKHSSVQGRENGEEEEEEEAEFGEEDLFHQQGDPRTTSRGCRLM
B2: Huntingtin Yeast Two-Hybrid Protein K, endogenous HYPK of mouse neuronal cells (protein, UniProt Q9CR41 1-121)
chain: MATEGDVELELETETSGPERPPEKPRKHDSGAADLERVTDYAEEKEIQSSNLETAMSVIGDRRSREQKAKQEREKELAKVTIKKEDLELIMTEMEISRAAAERSLREHMGNVVEALIALTN
B3: MLF2-GFP (protein, UniProt Q15773 1-248)
chain: MFRFMRDVEPEDPMFLMDPFAIHRQHMSRMLSGGFGYSPFLSITDGNMPGTRPASRRMQQAGAVSPFGMLGMSGGFMDMFGMMNDMIGNMEHMTAGGNCQTFSSSTVISYSNTGDGAPKVYQETSEMRSAPGGIRETRRTVRDSDSGLEQMSIGHHIRDRAHILQRSRNHRTGDQEERQDYINLDESEAAAFDDEWRRETSRFRQQRPLEFRRLESSGAGGRRAEGPPRLAIQGPEDSPSRQSRRYDW
B4: HIP1, endogenous in Neuro2A (protein, UniProt Q8VD75 1-1029)
chain: MDRMASSMKQVSNPLPKVLSRRGVGAGMEAAERESFERTQTVSVNKAINTQEVAVKEKHARTCILGTHHEKGAQTFWSVVNRLPLSSNAMLCWKFCHVFHKLLRDGHPNVLKDSLRYKNELSDMSRMWGHLSEGYGQLCSIYLKLLRTRMEYHTKNPRFPGNLQMSDRQLDEAGESDVNNFFQLTVEMFDYLECELNLFQTVFNSLDMSRSVSVTTAGQCRLAPLIQVILDCSHLYDYTVKLLFKLHSCLPADTLQGHRDRFMEQFTKLKDLFQRSSNLQYFKRLIQIPQLPENPPNFLRASALSEHISPVVVIPAEVSSPDSEPVLEKDDLMDMDASQQTLFDNKFDDVFGSSLSSDPFNFNNQNGVNKDEKDHLIERLYREISGLTGQLDNMKIESQRAMLQLKGRVSELEAELAEQQHLGRQAMDDCEFLRTELDELKRQREDTEKAQRSLTEIERKAQANEQRYSKLKEKYSELVQNHADLLRKNAEVTKQVSVARQAQVDLEREKKELADSFARTQEQQDVLENLKHELATSRQELQVLHSNLETSAQSEAKWLTQIAELEKEQGSLATVAAQREEELSALRDQLESTQIKLAGAQESMCQQVKDQRKTLLAGIRKAAEREIQEALSQLEEPTLISCAGSTDHLLSKVSSVSSCLEQLEKNGSQYLACPEDISELLHSITLLAHLTGDTIIQGSATSLRAPPEPADSLTEACRQYGRETLAYLSSLEEEGTMENADVTALRNCLSRVKTLGEELLPRGLDIKQEELGDLVDKEMAATSAAIEAATTRIEEILSKSRAGDTGVKLEVNERILGSCTSLMQAIKVLVVASKDLQKEIVESGRGTASPKEFYAKNSRWTEGLISASKAVGWGATIMVDAADLVVQGKGKFEELMVCSREIAASTAQLVAASKVKANKGSLNLTQLQQASRGVNQATAAVVASTISGKSQIEETDSMDFSSMTLTQIKRQEMDSQVRVLELENDLQKERQKLGELRKKHYELAGVAEGWEEGTEASPSTVQEAIPDKE
B5: HIP1-DsRed (protein, UniProt O00291 1-1037)
chain: MDRMASSMKQVPNPLPKVLSRRGVGAGLEAAERESFERTQTVSINKAINTQEVAVKEKHARTCILGTHHEKGAQTFWSVVNRLPLSSNAVLCWKFCHVFHKLLRDGHPNVLKDSLRYRNELSDMSRMWGHLSEGYGQLCSIYLKLLRTKMEYHTKNPRFPGNLQMSDRQLDEAGESDVNNFFQLTVEMFDYLECELNLFQTVFNSLDMSRSVSVTAAGQCRLAPLIQVILDCSHLYDYTVKLLFKLHSCLPADTLQGHRDRFMEQFTKLKDLFYRSSNLQYFKRLIQIPQLPENPPNFLRASALSEHISPVVVIPAEASSPDSEPVLEKDDLMDMDASQQNLFDNKFDDIFGSSFSSDPFNFNSQNGVNKDEKDHLIERLYREISGLKAQLENMKTESQRVVLQLKGHVSELEADLAEQQHLRQQAADDCEFLRAELDELRRQREDTEKAQRSLSEIERKAQANEQRYSKLKEKYSELVQNHADLLRKNAEVTKQVSMARQAQVDLEREKKELEDSLERISDQGQRKTQEQLEVLESLKQELATSQRELQVLQGSLETSAQSEANWAAEFAELEKERDSLVSGAAHREEELSALRKELQDTQLKLASTEESMCQLAKDQRKMLLVGSRKAAEQVIQDALNQLEEPPLISCAGSADHLLSTVTSISSCIEQLEKSWSQYLACPEDISGLLHSITLLAHLTSDAIAHGATTCLRAPPEPADSLTEACKQYGRETLAYLASLEEEGSLENADSTAMRNCLSKIKAIGEELLPRGLDIKQEELGDLVDKEMAATSAAIETATARIEEMLSKSRAGDTGVKLEVNERILGCCTSLMQAIQVLIVASKDLQREIVESGRGTASPKEFYAKNSRWTEGLISASKAVGWGATVMVDAADLVVQGRGKFEELMVCSHEIAASTAQLVAASKVKADKDSPNLAQLQQASRGVNQATAGVVASTISGKSQIEETDNMDFSSMTLTQIKRQEMDSQVRVLELENELQKERQKLGELRKKHYELAGVAEGWEEGTEASPPTLQEVVTEKE
B6: LMNB2-DsRed (protein, UniProt Q03252 1-620)
chain: MSPPSPGRRREQRRPRAAATMATPLPGRAGGPATPLSPTRLSRLQEKEELRELNDRLAHYIDRVRALELENDRLLLKISEKEEVTTREVSGIKALYESELADARRVLDETARERARLQIEIGKLRAELDEVNKSAKKREGELTVAQGRVKDLESLFHRSEVELAAALSDKRGLESDVAELRAQLAKAEDGHAVAKKQLEKETLMRVDLENRCQSLQEELDFRKSVFEEEVRETRRRHERRLVEVDSSRQQEYDFKMAQALEELRSQHDEQVRLYKLELEQTYQAKLDSAKLSSDQNDKAASAAREELKEARMRLESLSYQLSGLQKQASAAEDRIRELEEAMAGERDKFRKMLDAKEQEMTEMRDVMQQQLAEYQELLDVKLALDMEINAYRKLLEGEEERLKLSPSPSSRVTVSRATSSSSGSLSATGRLGRSKRKRLEVEEPLGSGPSVLGTGTGGSGGFHLAQQASASGSVSIEEIDLEGKFVQLKNNSDKDQSLGNWRIKRQVLEGEEIAYKFTPKYILRAGQMVTVWAAGAGVAHSPPSTLVWKGQSSWGTGESFRTVLVNADGEEVAMRTVKKSSVMRENENGEEEEEEAEFGEEDLFHQQGDPRTTSRGCYVM
B7: MLF1-GFP (protein, UniProt P58340 1-268)
chain: MFRMLNSSFEDDPFFSESILAHRENMRQMIRSFSEPFGRDLLSISDGRGRAHNRRGHNDGEDSLTHTDVSSFQTMDQMVSNMRNYMQKLERNFGQLSVDPNGHSFCSSSVMTYSKIGDEPPKVFQASTQTRRAPGGIKETRKAMRDSDSGLEKMAIGHHIHDRAHVIKKSKNKKTGDEEVNQEFINMNESDAHAFDEEWQSEVLKYKPGRHNLGNTRMRSVGHENPGSRELKRREKPQQSPAIEHGRRSNVLGDKLHIKGSSVKSNKK

Protein sequences, listed by entry. Tags and fused reporters are not part of them.
UniProt Q04207: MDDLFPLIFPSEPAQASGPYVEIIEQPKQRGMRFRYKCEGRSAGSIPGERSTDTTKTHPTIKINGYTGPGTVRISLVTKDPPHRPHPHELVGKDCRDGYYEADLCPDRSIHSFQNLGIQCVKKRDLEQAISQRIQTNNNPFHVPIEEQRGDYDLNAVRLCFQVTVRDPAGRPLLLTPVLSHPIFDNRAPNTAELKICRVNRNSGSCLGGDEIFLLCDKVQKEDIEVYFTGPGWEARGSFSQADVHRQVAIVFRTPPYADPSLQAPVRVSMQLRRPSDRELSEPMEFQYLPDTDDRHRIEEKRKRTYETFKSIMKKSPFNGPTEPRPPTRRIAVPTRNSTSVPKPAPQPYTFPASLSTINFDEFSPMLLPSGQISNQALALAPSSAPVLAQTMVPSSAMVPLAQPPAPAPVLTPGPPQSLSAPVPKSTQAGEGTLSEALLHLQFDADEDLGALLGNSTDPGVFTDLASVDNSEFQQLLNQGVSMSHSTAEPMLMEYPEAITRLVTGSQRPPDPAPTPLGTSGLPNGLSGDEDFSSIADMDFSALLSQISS
UniProt Q61696: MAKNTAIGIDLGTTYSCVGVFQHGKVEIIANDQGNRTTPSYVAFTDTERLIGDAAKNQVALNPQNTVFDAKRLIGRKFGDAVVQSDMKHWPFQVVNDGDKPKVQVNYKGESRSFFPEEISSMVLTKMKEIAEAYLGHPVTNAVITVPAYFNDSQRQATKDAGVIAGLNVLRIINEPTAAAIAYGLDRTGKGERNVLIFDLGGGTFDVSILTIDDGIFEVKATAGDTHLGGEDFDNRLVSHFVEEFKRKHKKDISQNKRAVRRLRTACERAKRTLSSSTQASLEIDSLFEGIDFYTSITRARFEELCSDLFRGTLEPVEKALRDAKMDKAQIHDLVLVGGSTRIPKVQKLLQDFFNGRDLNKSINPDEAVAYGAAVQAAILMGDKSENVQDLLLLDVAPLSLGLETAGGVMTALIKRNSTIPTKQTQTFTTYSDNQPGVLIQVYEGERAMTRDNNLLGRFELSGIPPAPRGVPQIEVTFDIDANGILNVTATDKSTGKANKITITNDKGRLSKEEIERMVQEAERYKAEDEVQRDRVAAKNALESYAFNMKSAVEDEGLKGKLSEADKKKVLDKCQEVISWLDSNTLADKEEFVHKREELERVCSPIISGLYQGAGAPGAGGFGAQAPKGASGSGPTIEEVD
UniProt P42859: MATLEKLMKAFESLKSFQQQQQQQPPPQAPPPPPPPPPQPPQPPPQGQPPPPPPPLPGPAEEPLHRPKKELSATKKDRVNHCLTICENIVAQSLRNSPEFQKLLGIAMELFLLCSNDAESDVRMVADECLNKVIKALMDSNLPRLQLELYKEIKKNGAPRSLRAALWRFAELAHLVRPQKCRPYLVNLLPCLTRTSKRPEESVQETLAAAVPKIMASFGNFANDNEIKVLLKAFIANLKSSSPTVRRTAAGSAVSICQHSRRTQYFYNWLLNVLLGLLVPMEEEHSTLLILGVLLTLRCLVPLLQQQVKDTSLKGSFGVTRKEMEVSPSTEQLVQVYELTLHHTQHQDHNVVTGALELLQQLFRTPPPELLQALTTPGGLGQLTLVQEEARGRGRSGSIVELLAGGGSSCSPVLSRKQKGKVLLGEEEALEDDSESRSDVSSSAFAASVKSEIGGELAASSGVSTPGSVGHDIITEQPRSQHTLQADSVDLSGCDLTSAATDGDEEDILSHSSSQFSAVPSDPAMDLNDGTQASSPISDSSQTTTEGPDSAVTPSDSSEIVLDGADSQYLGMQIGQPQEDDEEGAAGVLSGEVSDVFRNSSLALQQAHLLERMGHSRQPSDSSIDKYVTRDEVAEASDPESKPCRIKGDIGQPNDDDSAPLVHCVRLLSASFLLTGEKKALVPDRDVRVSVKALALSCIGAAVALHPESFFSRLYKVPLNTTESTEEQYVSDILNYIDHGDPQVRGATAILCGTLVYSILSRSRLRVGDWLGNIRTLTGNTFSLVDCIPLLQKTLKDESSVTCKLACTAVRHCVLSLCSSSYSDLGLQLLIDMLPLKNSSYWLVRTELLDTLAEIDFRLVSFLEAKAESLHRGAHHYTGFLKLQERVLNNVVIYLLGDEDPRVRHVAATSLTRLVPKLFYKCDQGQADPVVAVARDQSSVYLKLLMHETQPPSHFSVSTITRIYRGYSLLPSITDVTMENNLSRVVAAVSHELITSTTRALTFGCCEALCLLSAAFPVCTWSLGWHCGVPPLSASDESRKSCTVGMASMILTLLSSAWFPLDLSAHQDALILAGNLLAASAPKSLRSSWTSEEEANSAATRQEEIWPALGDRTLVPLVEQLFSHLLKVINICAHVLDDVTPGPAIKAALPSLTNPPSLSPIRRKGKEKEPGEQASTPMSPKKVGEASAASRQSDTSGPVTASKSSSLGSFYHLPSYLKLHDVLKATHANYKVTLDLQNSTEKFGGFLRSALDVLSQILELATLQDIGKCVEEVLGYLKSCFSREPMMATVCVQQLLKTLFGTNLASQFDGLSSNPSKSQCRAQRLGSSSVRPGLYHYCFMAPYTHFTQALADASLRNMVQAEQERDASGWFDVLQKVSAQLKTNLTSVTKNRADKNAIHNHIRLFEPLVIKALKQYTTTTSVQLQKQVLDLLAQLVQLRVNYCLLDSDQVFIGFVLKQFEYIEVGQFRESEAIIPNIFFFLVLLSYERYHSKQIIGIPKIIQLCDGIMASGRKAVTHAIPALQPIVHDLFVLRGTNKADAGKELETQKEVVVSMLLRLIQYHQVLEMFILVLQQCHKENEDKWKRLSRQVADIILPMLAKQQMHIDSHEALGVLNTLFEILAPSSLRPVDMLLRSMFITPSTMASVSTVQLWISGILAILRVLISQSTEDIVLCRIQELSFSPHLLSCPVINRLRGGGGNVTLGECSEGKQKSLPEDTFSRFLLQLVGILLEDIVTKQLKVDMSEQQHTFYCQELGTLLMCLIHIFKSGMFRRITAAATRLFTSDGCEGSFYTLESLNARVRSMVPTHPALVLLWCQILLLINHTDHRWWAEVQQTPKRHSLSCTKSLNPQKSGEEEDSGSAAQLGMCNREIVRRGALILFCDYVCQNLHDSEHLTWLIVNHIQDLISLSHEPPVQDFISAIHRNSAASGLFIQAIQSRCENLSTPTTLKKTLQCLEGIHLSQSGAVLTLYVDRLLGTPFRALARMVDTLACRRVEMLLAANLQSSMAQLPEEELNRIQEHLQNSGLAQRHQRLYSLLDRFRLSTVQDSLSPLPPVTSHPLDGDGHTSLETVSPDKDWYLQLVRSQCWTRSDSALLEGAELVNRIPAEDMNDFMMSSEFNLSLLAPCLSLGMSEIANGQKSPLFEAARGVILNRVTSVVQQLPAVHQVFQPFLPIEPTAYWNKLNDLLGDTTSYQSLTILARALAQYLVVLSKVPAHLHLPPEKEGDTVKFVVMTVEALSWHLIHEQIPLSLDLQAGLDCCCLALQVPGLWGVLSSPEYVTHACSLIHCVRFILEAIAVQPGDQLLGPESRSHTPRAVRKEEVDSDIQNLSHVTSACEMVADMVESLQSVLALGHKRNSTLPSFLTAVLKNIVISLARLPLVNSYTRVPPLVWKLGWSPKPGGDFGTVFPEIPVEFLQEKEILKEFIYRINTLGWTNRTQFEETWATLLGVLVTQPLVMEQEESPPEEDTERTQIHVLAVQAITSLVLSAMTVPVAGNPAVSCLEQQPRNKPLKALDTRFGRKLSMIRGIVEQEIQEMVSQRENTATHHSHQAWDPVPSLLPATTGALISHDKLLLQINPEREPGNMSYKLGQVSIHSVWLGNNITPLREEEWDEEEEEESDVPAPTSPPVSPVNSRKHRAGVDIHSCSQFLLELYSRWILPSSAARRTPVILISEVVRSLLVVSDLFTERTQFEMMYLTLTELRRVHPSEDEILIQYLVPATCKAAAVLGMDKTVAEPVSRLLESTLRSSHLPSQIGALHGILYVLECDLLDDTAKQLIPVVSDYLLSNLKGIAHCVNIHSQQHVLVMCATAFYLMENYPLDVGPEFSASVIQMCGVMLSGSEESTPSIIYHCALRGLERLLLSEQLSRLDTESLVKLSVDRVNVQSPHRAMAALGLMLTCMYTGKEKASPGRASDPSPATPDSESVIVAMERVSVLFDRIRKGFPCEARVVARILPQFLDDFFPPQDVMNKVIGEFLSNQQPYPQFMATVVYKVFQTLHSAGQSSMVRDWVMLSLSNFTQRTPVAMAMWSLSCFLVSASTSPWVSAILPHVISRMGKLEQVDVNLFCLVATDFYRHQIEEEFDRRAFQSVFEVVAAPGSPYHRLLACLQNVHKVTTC
UniProt P02340: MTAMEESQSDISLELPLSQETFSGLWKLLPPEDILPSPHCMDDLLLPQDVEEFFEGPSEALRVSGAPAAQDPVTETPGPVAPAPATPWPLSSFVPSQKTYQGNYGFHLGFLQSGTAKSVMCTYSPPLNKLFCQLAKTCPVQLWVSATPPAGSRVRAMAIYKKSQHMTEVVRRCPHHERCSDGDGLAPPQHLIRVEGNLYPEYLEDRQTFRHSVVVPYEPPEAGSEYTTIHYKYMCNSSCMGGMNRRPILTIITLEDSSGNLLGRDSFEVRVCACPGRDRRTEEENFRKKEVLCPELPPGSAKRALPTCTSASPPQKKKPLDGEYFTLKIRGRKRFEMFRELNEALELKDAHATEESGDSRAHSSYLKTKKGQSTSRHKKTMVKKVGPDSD
UniProt P11142: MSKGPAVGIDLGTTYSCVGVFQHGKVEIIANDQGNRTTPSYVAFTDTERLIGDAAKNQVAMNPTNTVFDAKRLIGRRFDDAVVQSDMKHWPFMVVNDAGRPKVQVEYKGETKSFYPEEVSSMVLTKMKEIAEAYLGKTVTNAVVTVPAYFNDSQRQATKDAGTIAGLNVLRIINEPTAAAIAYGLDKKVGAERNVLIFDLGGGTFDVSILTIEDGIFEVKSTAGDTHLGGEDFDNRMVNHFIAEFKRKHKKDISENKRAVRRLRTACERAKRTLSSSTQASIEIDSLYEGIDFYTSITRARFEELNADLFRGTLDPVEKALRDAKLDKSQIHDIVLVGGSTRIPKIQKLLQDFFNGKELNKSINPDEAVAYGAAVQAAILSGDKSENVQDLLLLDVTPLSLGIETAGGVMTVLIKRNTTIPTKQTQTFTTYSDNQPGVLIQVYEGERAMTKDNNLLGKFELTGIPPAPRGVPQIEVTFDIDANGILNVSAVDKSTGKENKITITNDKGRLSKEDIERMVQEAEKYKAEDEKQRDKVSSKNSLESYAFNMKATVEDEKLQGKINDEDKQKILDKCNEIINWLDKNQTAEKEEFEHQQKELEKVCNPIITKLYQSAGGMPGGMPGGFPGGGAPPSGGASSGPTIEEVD
UniProt Q00613: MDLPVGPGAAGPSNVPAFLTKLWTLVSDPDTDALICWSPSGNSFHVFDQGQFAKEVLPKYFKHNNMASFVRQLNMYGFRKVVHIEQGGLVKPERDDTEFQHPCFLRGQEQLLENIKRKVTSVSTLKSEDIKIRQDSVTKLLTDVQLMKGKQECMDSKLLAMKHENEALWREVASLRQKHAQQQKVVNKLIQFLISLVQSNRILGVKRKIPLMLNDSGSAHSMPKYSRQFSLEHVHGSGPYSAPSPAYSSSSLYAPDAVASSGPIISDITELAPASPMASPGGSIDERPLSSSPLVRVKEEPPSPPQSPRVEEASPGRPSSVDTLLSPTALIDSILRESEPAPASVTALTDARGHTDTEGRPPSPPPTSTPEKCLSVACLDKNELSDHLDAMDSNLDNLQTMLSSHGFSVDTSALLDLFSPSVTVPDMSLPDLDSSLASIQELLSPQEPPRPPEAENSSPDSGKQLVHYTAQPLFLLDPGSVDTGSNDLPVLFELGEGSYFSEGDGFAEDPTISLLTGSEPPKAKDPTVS
UniProt Q8WWF6: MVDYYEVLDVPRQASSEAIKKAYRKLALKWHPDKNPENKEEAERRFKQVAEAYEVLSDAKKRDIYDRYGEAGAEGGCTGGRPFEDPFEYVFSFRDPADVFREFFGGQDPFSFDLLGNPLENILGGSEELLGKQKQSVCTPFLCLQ
UniProt P08670: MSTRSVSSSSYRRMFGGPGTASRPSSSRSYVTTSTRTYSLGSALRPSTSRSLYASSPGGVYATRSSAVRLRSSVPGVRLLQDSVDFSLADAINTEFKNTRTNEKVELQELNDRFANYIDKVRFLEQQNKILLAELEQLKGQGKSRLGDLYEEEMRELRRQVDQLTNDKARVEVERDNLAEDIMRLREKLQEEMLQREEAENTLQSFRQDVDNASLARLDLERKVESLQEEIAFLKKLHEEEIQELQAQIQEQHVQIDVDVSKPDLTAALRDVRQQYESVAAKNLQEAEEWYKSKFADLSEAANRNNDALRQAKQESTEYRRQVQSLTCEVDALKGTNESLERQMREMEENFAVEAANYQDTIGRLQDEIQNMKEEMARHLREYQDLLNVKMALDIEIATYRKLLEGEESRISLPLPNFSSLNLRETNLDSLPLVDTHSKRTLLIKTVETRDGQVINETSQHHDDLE

Results are given in words; binding and its absence hold for the method and conditions named. Binding seen in cells or lysates may run through a third protein. Some entries that bind do so weakly or less than the wild type. For part of these data: Where a sequence is shown, tags or fusion partners need not be part of it.

In one experiment the target is T1, Huntingtin Yeast Two-Hybrid Protein K, endogenous HYPK of mouse neuronal cells (mouse (endogenous in Neuro2A and STHdh cells)) (UniProt Q9CR41).
T1 sequence: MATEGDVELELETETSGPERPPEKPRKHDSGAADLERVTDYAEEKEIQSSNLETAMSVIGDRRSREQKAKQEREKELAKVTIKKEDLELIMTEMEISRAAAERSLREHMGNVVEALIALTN
Briefly: co-IP; anti-HYPK immunoprecipitate elute from Neuro2A, STHdhQ7/HdhQ7 or STHdhQ111/HdhQ111 cell extract run on native PAGE and blotted; partners detected in the high molecular weight complex.
In the case of “v-rel reticuloendotheliosis viral oncogene homolog A (avian), endogenous (from UniProt Q04207 1-549)”, the binding result is listed as “binds”.

As to “Heat shock 70kDa protein 1A, endogenous in Neuro2A (from UniProt Q61696 1-641)”, the binding result is reported as “binds”.

As to “Huntingtin, full-length with 7 glutamine residues (STHdhQ7/HdhQ7) (from UniProt P42859 1-3119)”, the binding result is recorded as “binds”.

“Tumor protein p53, endogenous (from UniProt P02340 1-390)”: the binding entry is listed as “binds”.

As to B1, the binding entry is “binds”.

Another experiment has as its target Tumor protein p53, endogenous (mouse (endogenous in STHdhQ7/HdhQ7)) (UniProt P02340). The experiment in a line: co-IP; anti-HYPK antibody precipitates endogenous HYPK from soluble cell lysate (Neuro2A where named), partners endogenous or overexpressed with DsRed or GFP; eluted with 100 mM glycine pH 3.0; SDS-PAGE western blot; for TP53 also with the antibodies swapped. A general note: Immunoblotting shows a protein as a band on a membrane.
B2: the binding entry was “binds”.

In the next experiment the target is T1, Huntingtin Yeast Two-Hybrid Protein K, endogenous HYPK of mouse neuronal cells (mouse (endogenous in Neuro2A and STHdh cells)). Described as above.
Consider “v-rel reticuloendotheliosis viral oncogene homolog A (avian), endogenous (from UniProt Q04207 1-549)”, for which the binding entry is listed as “binds”.

Turning to HSPA8-DsRed (from UniProt P11142 1-646), the binding result is “binds”.

As to HSF1-GFP (from UniProt Q00613 1-529), the binding entry was “binds”.

For “Heat shock 70kDa protein 1A, endogenous in Neuro2A (from UniProt Q61696 1-641)”, the binding result was “binds”.

Consider DNAJB3-GFP (from UniProt Q8WWF6 1-145), for which the binding result is recorded as “binds”.

In the case of VIM-DsRed (from UniProt P08670 1-466), the binding entry was “binds”.

“Tumor protein p53, endogenous (from UniProt P02340 1-390)”: the binding result is “binds”.

Take B3: the binding entry is “binds”.

For the molecule B4, the binding result was “no binding”.

Take B5: the binding result was “no binding”.

Turning to B6, the binding entry is listed as “binds”.

Turning to B7, the binding entry is “binds”.

Source of the values: paper PMC3525516.
